# Among all 390,000 compounds or so, about 2,200 (0.56%) were called active. The shares of active, inactive and inconclusive entries below differ from those in the screen. Calls follow the shape of the dose curve; as a rule, active = well fitted inhibition curve with a large enough effect; inconclusive = small, poorly fitted or top-dose-only effect; inactive = no such curve, though single readings can be large or run the other way. Where the call is inconclusive, the potency comes from a doubtful curve fit.
# Target: Chromobox protein homolog 1 (Homo sapiens) (UniProt P83916)
# UniProt P83916, sequence (P83916 whole entry, looked up): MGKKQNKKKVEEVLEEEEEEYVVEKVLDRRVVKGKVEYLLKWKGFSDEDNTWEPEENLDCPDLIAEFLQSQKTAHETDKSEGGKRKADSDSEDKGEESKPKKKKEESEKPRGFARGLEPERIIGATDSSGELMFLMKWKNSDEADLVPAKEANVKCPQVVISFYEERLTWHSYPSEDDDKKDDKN
# Assay: HTS for Inhibitors of HP1-beta Chromodomain Interactions with Methylated Histone Tails; also: nearly all actives have a fitted effect of over 70% in size
# Conditions: AlphaScreen HP1-beta / biotin-H3K9me3 peptide binding; series mostly up to 114 µM
# Method in brief: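 Compound inhibition of the preformed complex between 50 nM HP1-beta and 50 nM biotinylated H3K9me3 peptide was read by AlphaScreen. Buffer was PBS pH 7.4 with 0.01% Tween-20. Incubations ran 30 min at room temperature, with 10 ug/mL donor/acceptor beads.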
# Potency is read from the fitted curve at half-maximal effect; tags tell the direction and shape of the fitted curve.
row,SMILES,Potency
1,CN1/C(=C\C=C2/SC(=S)NC2=O)C(C)(C)c2ccccc21,"inconclusive: 10 µM [inhibitor, full curve]"
2,O=C(Cc1ccccc1)N/N=C/c1ccc(OCC(=O)Nc2ccccc2)cc1,"inconclusive: 89.1 µM [inhibitor, single point]"
3,N#Cc1ccccc1OCC(=O)N1CCN(C(=O)c2ccco2)CC1,inactive
4,CN(C)/N=C/C=C1\CCC/C(=C\c2ccc(F)c(F)c2)C1=O,"inconclusive: 31.6 µM [inhibitor, partial curve, poor fit]"
5,Oc1ccc2ccccc2c1N=Nc1nccs1,active: 6.31 µM
6,O=C(c1cccc(F)c1)N1CCN(Cc2cccc(Br)c2)CC1,"inconclusive: 28.2 µM [inhibitor, single point]"
7,CC(C)(C)OC(=O)[C@H](Cc1ccccc1)NC(=O)c1nc[nH]c1C(=O)N1CCN(c2ccccc2)CC1,"inconclusive: 22.4 µM [inhibitor, full curve]"
8,O=C(O)CCCC(=O)Nc1cccc2cccnc12,inactive
9,COc1ccc(C(=O)NCCc2c[nH]c3ccccc23)cc1[N+](=O)[O-],"inconclusive: 70.8 µM [inhibitor, partial curve]"
10,Cc1ccc(S(=O)(=O)N2CCC(N3CCC(C)CC3)CC2)cc1,"inconclusive: 70.8 µM [inhibitor, partial curve]"
11,O=C(Nc1ccccc1)/C(=C\c1ccc2c(c1)OCO2)NC(=O)c1ccco1,inactive
12,O=C(CN1CCC(N2CCCCC2)CC1)N1CCCc2ccccc21,"inconclusive: 44.7 µM [inhibitor, partial curve]"
13,CC(/C=N/Nc1nnc(C)c(=O)[nH]1)=C\c1ccccc1,inactive
14,Cc1cc(C)c(Nc2nn3c(=O)c4cc5c(cc4nc3s2)OCO5)c(C)c1,"inconclusive: 3.55 µM [inhibitor, full curve]"
15,CCN(C=NC1=NN(c2cccc(C(F)(F)F)c2)CC1)CC,"inconclusive: 44.7 µM [inhibitor, partial curve, poor fit]"
16,COc1ccc(/C=N/NC(=O)c2ccoc2C)cc1CN1CCN(c2ccc(F)cc2)CC1,"inconclusive: 39.8 µM [inhibitor, partial curve, poor fit]"
17,Cc1nc(N)nc(OCC(F)(F)C(F)F)c1Br,"inconclusive: 28.2 µM [inhibitor, single point]"
18,Cc1ccc2c(=O)cc(C(=O)Nc3nnc(CC(C)C)s3)oc2c1C,inactive
19,CCCC(=O)NC(=S)c1c(C)n(C)n(-c2ccccc2)c1=O,inactive
20,Cc1ccc(S(=O)(=O)N(CC(=O)c2ccccc2)C(=O)N2CCN(C)CC2)cc1,"inconclusive: 89.1 µM [inhibitor, single point]"
21,Cc1ccc(C)n1-c1nnc(N2CCC(C(=O)Nc3ccccc3Br)CC2)s1,inactive
22,Cn1ccnc1SCC(=O)c1cccc(Br)c1,"inconclusive: 44.7 µM [inhibitor, partial curve, poor fit]"
23,CCCN1CCc2nc(N3CCN(CC)CC3)ncc2C1,inactive
24,CC(=O)c1ccc(C(=O)N(CCCN(C)C)c2nc3c(C)c(C)ccc3s2)cc1,"inconclusive: 79.4 µM [inhibitor, partial curve, poor fit]"

row,SMILES,Potency
1,CC(=O)c1ccc(Sc2ccccc2)c([N+](=O)[O-])c1,"inconclusive: 44.7 µM [inhibitor, partial curve]"
2,COc1ccc(C(=NN)c2ccc(OC)cc2)cc1,"inconclusive: 89.1 µM [inhibitor, single point]"
3,COc1nccnc1NS(=O)(=O)c1ccc(NCc2cc(Br)ccc2O)cc1,"inconclusive: 31.6 µM [inhibitor, partial curve]"
4,Cc1nc2ccn(Cc3cccs3)c(=O)c2cc1C(=O)N1CCN(c2ccc(F)cc2)CC1,inactive
5,Cc1ccc(-c2csc3nc4cc(C(=O)NC5CCC(O)CC5)ccc4c(=O)n23)cc1 (stereo not given),"inconclusive: 44.7 µM [inhibitor, partial curve]"
6,COc1ccc2[nH]c(C)c(CCNc3ccc(C(F)(F)F)cc3[N+](=O)[O-])c2c1,"inconclusive: 44.7 µM [inhibitor, partial curve]"
7,O=[N+]([O-])c1cc(S(=O)(=O)Nc2cccc(C(F)(F)F)c2)ccc1-n1nnc2ccccc21,"inconclusive: 79.4 µM [inhibitor, single point]"
8,CN(C)c1ccc(/C=C/c2ccc3ccccc3[n+]2C)cc1,"inconclusive: 31.6 µM [inhibitor, single point]"
9,O=C(Nc1ccc2nc(-c3ccc4nc[nH]c4c3)[nH]c2c1)c1cccs1,"inconclusive: 79.4 µM [inhibitor, single point]"
10,C=CCc1ccccc1OCCCCN1CCCC1,"inconclusive: 50.1 µM [inhibitor, partial curve]"
11,COc1ccc(NC(=S)NCc2ccc3c(c2)cc(C)n3C)cc1,"inconclusive: 28.2 µM [inhibitor, full curve]"
12,Oc1cccc2cc3cccc(O)c3c(O)c12,inactive
13,CC(=O)Nc1ccc(S(=O)(=O)c2cc(O)ccc2O)cc1,"inconclusive: 56.2 µM [inhibitor, single point]"
14,O=C(COC(=O)C1CCC1)NCc1ccc(F)cc1,inactive
15,COc1ccc(/C=N/NC(=O)c2cc(-c3cccn3C)n[nH]2)cc1OC,"inconclusive: 22.4 µM [inhibitor, partial curve, poor fit]"
16,COc1ccc(NCC(O)COc2ccc(C(C)(C)C)cc2)cc1 (stereo not given),"inconclusive: 31.6 µM [inhibitor, partial curve]"
17,Cc1cccc(-n2c(C)cc(C(=S)N3CCOCC3)c2C)c1C,"inconclusive: 35.5 µM [inhibitor, partial curve]"
18,CC(=O)NC1=C(Nc2ccc(N(C)C)cc2)C(=O)c2ccccc2C1=O,"inconclusive: 44.7 µM [inhibitor, partial curve]"
19,Nc1ccccc1C(=O)/C=C/c1ccc2c(c1)OCO2,"inconclusive: 22.4 µM [inhibitor, full curve]"
20,Cn1ccnc1SCC(=O)n1c2c(c3ccccc31)CCCC2,"inconclusive: 50.1 µM [inhibitor, partial curve, poor fit]"
21,COc1cccc(OC)c1OCCCCN1CCC(Cc2ccccc2)CC1,"inconclusive: 22.4 µM [inhibitor, partial curve]"
22,C=CCNCCCCOc1ccc(Br)cc1C,"inconclusive: 56.2 µM [inhibitor, partial curve, poor fit]"
23,COc1ccc(/C=N/NC(=S)SC)cc1OC,inactive
24,O=C(NC(CC(=O)N1CCCC(C(F)(F)F)C1)c1ccccc1)c1ccccc1Cl (stereo not given),inactive

row,SMILES,Potency
1,CCN(CC)CCN1C(=O)/C(=C\c2ccc(Cl)c([N+](=O)[O-])c2)SC1=Nc1ccc(OC)cc1,active: 11.2 µM
2,Cc1ccc(NCCCn2ccc(NC(=O)OCc3ccccc3)nc2=O)cc1C,"inconclusive: 56.2 µM [inhibitor, single point]"
3,Cc1ccc(Cl)c2c1N[C@@H](c1ccc(C(=O)O)cc1)[C@H]1CC=C[C@@H]21,inactive
4,Cc1cc2c3c(c1)C1(C(=O)N3C(C)(C)CC2C)C(C#N)=C(N)Oc2cc(O)ccc21 (stereo not given),"inconclusive: 56.2 µM [inhibitor, partial curve, poor fit]"
5,N#Cc1cc([N+](=O)[O-])cnc1N(CCO)CCO,inactive
6,COc1ccc(C2=NS(=O)(=O)N(C)C(C(=O)Nc3cc(C)ccc3O)=C2)cc1OC,"inconclusive: 44.7 µM [inhibitor, partial curve, poor fit]"
7,COc1ccc(N2CCN(C(=O)CN(c3cccc(OC)c3)S(=O)(=O)c3ccccc3)CC2)cc1,"inconclusive: 39.8 µM [inhibitor, partial curve]"
8,COc1ccc(C(=O)OCC(=O)NC(C)CCc2ccccc2)cc1 (stereo not given),"inconclusive: 89.1 µM [inhibitor, single point]"
9,COc1ccc2c(CCNC(N)=S)c[nH]c2c1,inactive
10,Cc1nc(C)c(-c2csc(Nc3ccc(F)cc3)n2)s1,"inconclusive: 28.2 µM [inhibitor, full curve]"
11,Cc1ccc(C(=O)Nc2ccc(Nc3ccccc3)cc2)cc1C,"inconclusive: 39.8 µM [inhibitor, partial curve]"
12,CC(=O)c1cc(O)c2ccccc2c1O,"inconclusive: 4.47 µM [inhibitor, full curve, poor fit]"
13,Cc1cccc(C(=O)Nc2sc3c(c2C(=O)NCc2ccco2)CCCC3)c1,"inconclusive: 89.1 µM [inhibitor, single point]"
14,Cc1ccc2[nH]c(=O)c3cc(C(=O)N4CCN(c5ccccc5)CC4)sc3c2c1,inactive
15,CN(CCc1ccccn1)Cc1ccc(Cl)c(Cl)c1,"inconclusive: 14.1 µM [inhibitor, full curve]"
16,COc1cc(/C=C/c2ccc3cccc(OC)c3n2)c(O)c([N+](=O)[O-])c1,inactive
17,COc1ccc(CCNS(=O)(=O)c2ccc(Br)s2)cc1,inactive
18,COc1ccc(N2CCN(CC(O)COC(c3ccc(F)cc3)c3ccc(F)cc3)CC2)cc1 (stereo not given),"inconclusive: 14.1 µM [inhibitor, full curve, poor fit]"
19,O=[N+]([O-])c1ccccc1OCCCNCc1ccccc1,"inconclusive: 70.8 µM [inhibitor, single point]"
20,O=c1[nH]c(C2CCCN(S(=O)(=O)c3cccc(F)c3)C2)nc2c1nnn2Cc1ccccc1 (stereo not given),inactive
21,CC/C(=C/c1sc2ccc(C)cc2[n+]1CCO)SC,inactive
22,CC(NCc1ccc([N+](=O)[O-])cc1)C1COc2ccccc2O1 (stereo not given),"inconclusive: 35.5 µM [inhibitor, partial curve]"

# — PubChem BioAssay AID540317 (National Center for Advancing Translational Sciences (NCATS), 2011)
